# Test results from PubChem BioAssay AID1240 (Sanford-Burnham Center for Chemical Genomics, 2008).
# Values joined by “and” are separate entries in the source; they are usually repeats but may differ in a detail not shown here. Equal entries are not always repeated. In all, about 50,000 compounds went through this assay and about 800 (1.6%) showed an effect of 50% or more. Some of the results follow.
# Biological target: Bcl-2-like protein 10 (Homo sapiens) (UniProt Q9HD36)
# Assay: Phenotype converters, Bcl-B/TR3 peptide binding displacement, primary biochemical FP (AID 1240);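 further: 0% = Bcl-B with tracer peptide and DMSO and 100% = tracer peptide lacking Bcl-B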
# Details: GST-Bcl-B / FITC-TR3 peptide fluorescence polarization; stronger effect = higher value; compound at 3.75 mg/L
# UniProt Q9HD36, sequence (Q9HD36 whole entry, looked up): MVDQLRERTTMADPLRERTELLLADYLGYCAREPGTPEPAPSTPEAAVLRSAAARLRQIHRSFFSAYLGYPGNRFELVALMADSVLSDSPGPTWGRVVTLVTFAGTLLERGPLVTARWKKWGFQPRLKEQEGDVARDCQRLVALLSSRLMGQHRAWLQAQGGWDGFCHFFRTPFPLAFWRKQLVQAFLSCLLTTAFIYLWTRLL
row,SMILES,displacement
1,COc1ccc2c(c1OC)C(=O)N(c1ccccc1Br)C2=O,1.9%
2,Cc1cc(NS(=O)(=O)c2ccc(NC(=O)C(C)C)cc2)nc(C)n1,-3.1%
3,O=S(=O)(c1ccc(Br)cc1)N1CCN(c2cccc(Cl)c2)CC1,-7.1%
4,CN(C)NC(=O)Nc1cccc(Cl)c1,0.2%
5,COc1ccccc1NC(=O)C1=C(C)NC(=S)NC1c1ccccc1Cl (stereo not drawn),6.2%
6,Cc1ccc(NC(=O)CSc2nc(C)cc(C)n2)cc1,-8%
7,CCN(CC)CCN1C(=O)C(O)=C(C(=O)/C=C/c2ccccc2)C1c1ccc(O)c(OC)c1 (stereo not drawn),-6.9%
8,Cc1cccc(OCC(O)CN2C(=O)NC(C)(C)C2=O)c1 (stereo not drawn),-5.8%
9,CC(=O)n1ccc(C(=O)Nc2ccc(Cl)c(Cl)c2)n1,-4.5%
10,O=C1CN=C(Nc2nc3ccccc3o2)N1,-10.9%
11,COC(=O)c1ccc(-n2ncnc2-c2ccc(Cl)c([N+](=O)[O-])c2)cc1,4%
12,CC1(CC(=O)NNC(=O)Nc2ccccc2)OCCCO1,-7.3%
13,COC(=O)c1ccccc1NC(=O)c1ccc2c(c1)OCCO2,-1.5%
14,CCN(CC)c1ccc(N=Cc2cccc(O)c2O)cc1,-3%
15,O=C(COc1ccc2ccccc2c1)Nc1ccc(I)cc1Cl,2.3%
16,CCC(C)c1ccc(OCCOc2c(I)cc(/C=N/n3cnnc3)cc2OC)cc1 (stereo not drawn),-12.2%
17,CCCCCCCCn1c(-c2nonc2NC(C)=O)nc2ccccc21,13.8%
18,COc1ccc(N2C(=O)NC(=O)/C(=C/c3cc(Cl)cc(OC)c3O)C2=O)cc1,-21.3%
19,CCC1=NN2C(=N)/C(=C/c3ccc(OCc4ccc(Br)cc4)c(OC)c3)C(=O)N=C2S1,14.4%
20,O=C(Nc1ccc(OC(F)(F)F)cc1)c1ccc([N+](=O)[O-])cc1,6.8%
21,CC(=O)c1c(C(C)=O)c(C)n(-c2ccc(C)cc2)c1C,5.8%
22,CC1=C(c2ccccc2)[N+](=O)C(C)(c2ccc(C)cc2)N1[O-] (stereo not drawn),17.1%
23,O=C(CSc1cccc2cccnc12)c1ccc(Cl)cc1Cl,-1.6%

row,SMILES,displacement
1,Cc1cc(C)nc(/N=C(/N)Nc2ccc(S(=O)(=O)Nc3nccc(C)n3)cc2)n1,6.2%
2,O=C(c1ccc(Br)o1)N1CCN(C(=O)c2ccc(Br)o2)CC1,28.8%
3,O=C1NC(=O)/C(=C/c2cccnc2)S1,12%
4,CN=C1S/C(=C\c2ccc(I)o2)C(=O)N1C,-7.4%
5,COc1ccccc1-n1c(O)c(C=C2C=Nc3ccccc32)c(=O)[nH]c1=S,8.3%
6,CC1=CC(C)(C)Nc2ccc(OCC(=O)c3ccccc3)cc21,19.2%
7,CCCCCOC(=O)CSc1nnc(-c2ccccc2Cl)o1,4.1%
8,CCOC(=O)c1ccc(-c2ccc(C(=O)Nc3ccc(-c4nc5ccccc5s4)c(O)c3)o2)cc1,-5.5%
9,CCOC(=O)C1=C(C)N=c2s/c(=C\c3ccc(I)cc3)c(=O)n2C1c1ccc(O)cc1 (stereo not drawn),7.4%
10,NC(=O)c1nn2c(c1Cl)NC(c1ccco1)CC2C(F)(F)F (stereo not drawn),1.8%
11,CC12c3ccccc3C(c3ccccc31)C1C(=O)N(c3ccccn3)C(=O)C12 (stereo not drawn),1.9%
12,CCCc1c(O)nc(SCCN(CCC)CCC)[nH]c1=O,-18.2%
13,O=C(NC(Cc1c[nH]c2ccccc12)C(=O)O)/C(=C/c1ccccc1)NC(=O)c1ccccc1 (stereo not drawn),-0.3%
14,CCCc1nc2ccccc2n1Cc1ccccc1,-6.8%
15,Cc1ccc(S(N)(=O)=O)cc1NC(=O)Cc1ccccc1,-6.5%
16,O=[N+]([O-])c1ccc2c(c1)S(=O)(=O)N=C2Nc1cccc(Cl)c1,9.5%
17,Cc1cc(OCC(=O)NCc2ccccc2Cl)ccc1Br,-1.3%
18,COc1ccc(N2C(=O)NC(=O)/C(=C/c3ccccc3OCCOc3ccccc3)C2=O)cc1,-17.5%
19,CC(C)(C#Cc1ccc(Br)cc1)OC(=O)Nc1cccc2ccccc12,8.6%
20,COc1ccc(Br)cc1/C=N\N1CCN(c2ccc(C)cc2)CC1,-5.3%
21,NC(=O)C1CCN(C(=O)c2cccc(C#CC3(O)CCCCC3)c2)CC1,-7.7%
22,CC(C)(C)N1C(=O)NC(=O)C(=Cc2cccs2)C1=O,12.2%
23,CN1C(=O)C(=Cc2cccc(OCCOc3ccccc3)c2)C(=O)N(C)C1=O,-3.8%

row,SMILES,displacement
1,CC1(C)OC(=O)CC1C(=O)NCc1ccccc1 (stereo not drawn),-11.6%
2,Cc1cc(Br)ccc1NCc1ccccn1,15.5%
3,O=C(Nc1ccc(N2CCOCC2)cc1)c1ccc(Br)cc1,-5.7%
4,O=C(Nc1ccccc1)c1c(F)c(F)c(F)c(F)c1F,-10.2%
5,CCOC(=O)C1CCN(C(=O)C(O)(c2ccccc2)c2ccccc2)CC1,-10.1%
6,Cc1ccc(C(=O)Nc2ccc(Nc3ccccc3)cc2)cc1[N+](=O)[O-],-1.4%
7,COc1ccc(NC(=O)Cc2ccccc2[N+](=O)[O-])cc1,4.1%
8,Cc1cccnc1NC(=O)c1cc2c(ccc3ccccc32)oc1=O,93%
9,Cc1ccc(-n2ncnc2-c2cccc(Cl)c2)cc1Cl,10.1%
10,O=C(Nc1ccc(S(=O)(=O)Nc2ncccn2)cc1)c1ccccc1,11.1%
11,COc1cc2ccccc2cc1C(=O)Nc1cccc2ccccc12,-9.6%
12,Cc1ccc(C(=O)N2CCN(c3ccc(Cl)cc3)CC2)cc1[N+](=O)[O-],-3%
13,CC(=O)N1C(=S)NC(=O)/C1=C\c1cccnc1,93.4%
14,CCOC(=O)c1cc(-c2ccc(Br)cc2)nc2ccccc12,-7.5%
15,Cc1cc(C=Nc2ccccc2)c(O)s1,13.1%
16,CN1C(=O)/C(=C/c2cc(Br)cc([N+](=O)[O-])c2O)SC1=S,-16.4%
17,O=C1c2ccccc2NC(c2ccccc2F)N1Cc1ccco1 (stereo not drawn),11.3%
18,COc1ccc(C(NC(C)=O)c2ccc(OC)cc2)cc1,2.3%
19,CCOC(=O)c1c(NC(=O)CCN2C(=O)c3cccc([N+](=O)[O-])c3C2=O)sc2c1CCCC2,-4.5%
20,Cc1csc(NC(=O)CCC2CCCC2)n1,-3.7%
21,CN(C)c1ccc(NC(=O)c2ccc(Br)cc2)cc1,48.8%
22,CC(=O)N/C(=N/c1nc(C)cc(C)n1)Nc1ccc(Cl)c(Cl)c1,-18.8%
23,COC(=O)c1c(NC(=O)/C=C/C(=O)O)sc(C)c1-c1cc(C)ccc1C,2.1%

row,SMILES,displacement
1,CC1=NN(C(=O)c2ccccc2)C(O)(c2ccccc2)C1 (stereo not drawn),2.1%
2,CC(C)c1ccc(NC(=O)c2ccccc2CCc2ccccc2)cc1,-0.2%
3,CCc1ccc(-c2nc3cc(NS(=O)(=O)c4ccccc4)ccc3o2)cc1,-3.4%
4,CCCNC(=O)C(=O)NCCc1ccc(OC)c(OC)c1,4.6%
5,Cc1ccc2nc(-c3cc(NC(=O)COc4ccccc4)ccc3OC(=O)COc3ccccc3)oc2c1,8.7%
6,COc1cc(F)ccc1S(=O)(=O)n1cnc2cc(C)c(C)cc21,9.1%
7,CC(C)CC(=O)Nc1ccc(-c2nc3ccccc3s2)cc1,6.1%
8,COc1ccc(CNC(=O)c2cccc(OC)c2)cc1,5.9%
9,CCOC(=O)C1CCN(C2CC(=O)N(c3ccc(F)cc3)C2=O)CC1 (stereo not drawn),-1.9%
10,NC(=O)C(=O)Nc1ccc(Oc2ccccc2)cc1,9.6%
11,CCCCNC(=O)c1ccc(N2CCCCC2)c([N+](=O)[O-])c1,-1%
12,O=C(CCc1ccccc1)Nc1ccc(Br)c(Cl)c1,-6%
13,O=C(Nc1nc2ccccc2s1)c1ccncc1,-4.8%
14,Cc1ccc(C(=O)Nc2ccc(NC(=O)c3cccc(Cl)c3)cc2)cc1C,8.1%
15,CCC1=NN2C(=N)/C(=C/c3ccc(-c4ccc([N+](=O)[O-])cc4OC)o3)C(=O)N=C2S1,4.4%
16,O=C1CC(CC(=C2C(=O)CCCC2=O)N2CCCC2)CC(=O)N1,1%
17,O=C(NCCNc1ccc(Cl)cc1[N+](=O)[O-])c1ccc(Br)o1,12.2%
18,O=[N+]([O-])c1ccc(Nc2nc(NCCN3CCOCC3)nc(Nc3ccc(Cl)cc3)n2)cc1,7.2%
19,COc1ccc(-c2nc(=S)c3c(n2CCO)CCCC3)cc1,-7.3%
20,CN(C)/C=C(/Cl)C=C1C(=O)c2ccccc2C1=O,6.1%
21,CCOC(=O)c1c(NC(=O)c2ccccc2C)sc(C(=O)Nc2ccccc2F)c1C,-5.2%
22,C/C(=C\C(=O)c1ccccc1)Nc1ccc(Br)c(C)c1,-11.6%
23,CC(C)OC(=O)c1ccc(NC(=O)COc2cc(Cl)ccc2Cl)cc1,-2.3%

row,SMILES,displacement
1,CC(=O)Nc1ccc(S(=O)(=O)Nc2ccc(OCc3ccccc3)cc2)cc1,4%
2,COC(=O)CSc1nc2sc3c(c2c(=O)n1-c1ccccc1)CC(C)CC3 (stereo not drawn),-13.4%
3,COc1ccc(/C=C2\C(=O)NC(=S)N(c3ccc(Br)cc3C)C2=O)c(C)c1,7.5%
4,Cc1cc(=O)[nH]c(SCc2ccccc2)n1,12.7%
5,Cc1ccc(N2NC(=O)/C(=C/c3ccc(N4CCOCC4)cc3)C2=O)cc1,0.5%
6,CCCCN=C1CC(C)(C)C(C(=O)OC)C(O)=C1C(=O)CCC (stereo not drawn),7.2%
7,O=C(CCCOc1ccc(Cl)cc1Cl)Oc1ccc(Cl)cc1Cl,-8.4%
8,COc1ccc(C(=O)Nc2ccc(S(=O)(=O)Nc3nccc(C)n3)cc2)cc1[N+](=O)[O-],9.5%
9,N/C(=N\OC(=O)c1ccc(Cl)cc1)c1ccccc1,-11.5%
10,CC1=NN(c2ccc(S(N)(=O)=O)cc2)C(=O)/C1=C\c1cccc(Br)c1,4.5%
11,O=C(COc1ccccc1)N1CCN(c2ccccc2)CC1,10.6%
12,CCCCNC(=O)Cn1nc(C(F)(F)F)cc1C,-7.7%
13,O=C1NN(c2ccccc2)C(=O)/C1=C/c1cccc(OCc2ccc(F)cc2)c1,13.1%
14,Cc1c(N2C(=O)CS/C2=N\N=C\c2ccc(Br)cc2)c(=O)n(-c2ccccc2)n1C,-2.8%
15,O=C(Nc1ccc(Cc2ccncc2)cc1)c1ccc(-c2cccc(Cl)c2)o1,3.8%
16,O=C1CSC(=Nc2ccc(Br)cc2)N1,-0.6% and 12.2%
17,CN1c2ccccc2N(C)C1c1ccc(Br)o1,-15.3%
18,O=c1[nH]cc(N=Cc2ccc(Cl)cc2)c(=O)[nH]1,-10.3%
19,CC(=O)Oc1ccccc1/C=C1\C=C(c2ccc(C)cc2)OC1=O,-0.2%
20,COc1ccc(C(NC(C)=O)NC(C)=O)cc1OC,6.3%
21,CCOC(=O)c1c(NC(=O)c2ccc(C)o2)sc(C(C)=O)c1C,-5.9%
